Measurements: article PMC4336329 (PLoS ONE, 2015)
Screen size: about 310,000 compounds; about 2,200 (0.71%) showed an effect of 50% or more. The effect is printed as a negative number. Some of the results follow.

Molecular target: human ether-à-go-go-related gene (hERG) potassium channel (human, UniProt Q12809)
Test: primary screen, population patch clamp on CHO cells stably expressing hERG

Sequence of human ether-à-go-go-related gene (hERG) potassium channel (Q12809 whole entry, looked up): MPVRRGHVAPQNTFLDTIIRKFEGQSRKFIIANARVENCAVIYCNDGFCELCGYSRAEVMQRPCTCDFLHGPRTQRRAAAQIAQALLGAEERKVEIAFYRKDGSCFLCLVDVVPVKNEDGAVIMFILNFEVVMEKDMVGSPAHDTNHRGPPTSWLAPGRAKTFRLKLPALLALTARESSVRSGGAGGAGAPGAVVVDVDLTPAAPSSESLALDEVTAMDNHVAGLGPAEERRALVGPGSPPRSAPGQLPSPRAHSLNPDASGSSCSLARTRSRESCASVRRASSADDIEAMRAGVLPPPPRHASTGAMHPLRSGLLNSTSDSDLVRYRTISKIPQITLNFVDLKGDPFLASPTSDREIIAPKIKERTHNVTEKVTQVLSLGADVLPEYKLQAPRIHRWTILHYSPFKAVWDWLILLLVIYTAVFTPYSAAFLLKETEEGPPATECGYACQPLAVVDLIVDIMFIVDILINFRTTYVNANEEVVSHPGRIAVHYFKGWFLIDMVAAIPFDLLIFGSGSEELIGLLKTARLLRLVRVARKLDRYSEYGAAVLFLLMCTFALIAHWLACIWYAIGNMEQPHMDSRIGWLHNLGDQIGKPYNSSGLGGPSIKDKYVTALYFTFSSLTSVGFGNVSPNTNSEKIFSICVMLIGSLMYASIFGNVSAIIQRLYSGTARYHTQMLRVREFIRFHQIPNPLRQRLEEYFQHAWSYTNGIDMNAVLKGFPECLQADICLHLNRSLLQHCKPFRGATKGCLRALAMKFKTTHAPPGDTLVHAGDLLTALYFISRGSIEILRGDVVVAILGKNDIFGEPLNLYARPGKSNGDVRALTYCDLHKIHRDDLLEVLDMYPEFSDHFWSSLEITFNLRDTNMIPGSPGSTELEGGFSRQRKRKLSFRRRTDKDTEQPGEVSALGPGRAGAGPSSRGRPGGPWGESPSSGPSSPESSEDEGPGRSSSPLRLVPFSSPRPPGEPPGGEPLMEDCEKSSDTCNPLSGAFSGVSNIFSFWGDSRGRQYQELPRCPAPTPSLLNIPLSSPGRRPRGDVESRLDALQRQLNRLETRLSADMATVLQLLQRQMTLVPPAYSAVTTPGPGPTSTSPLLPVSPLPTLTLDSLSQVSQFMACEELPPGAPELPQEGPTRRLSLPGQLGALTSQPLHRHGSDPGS

Row | SMILES | hERG current change (%, negative = inhibition) at 1uM [%]
1 | O=C(Cc1ccccc1[N+](=O)[O-])N/N=C/c1cccnc1 | 10.2
2 | CCCCNc1ccc(C(CC(N)=O)NC(=O)c2cc(C)cc(C)c2)cc1[N+](=O)[O-] (stereo not shown) | 12.2
3 | CCN(CC)C(=O)c1ccc2c(c1)C1C=CCC1C(C(=O)O)N2 (stereo not shown) | 7.12
4 | COc1c(Cl)cc(-c2noc(C)c2C(=O)NCc2ccccc2)cc1Cl | 5.03
5 | CCOC(=O)c1cnc(-n2nc(C)cc2C)nc1Nc1ccc(N(C)C)cc1 | -3.63
6 | COc1ccc(S(=O)(=O)N(CC(=O)N2CCOCC2)c2cc(Cl)ccc2OC)cc1OC | -4.36
7 | COCCN(C(=S)Nc1c(C)cccc1C)C(C)c1cccs1 (stereo not shown) | 5.83
8 | O=C(NC1CC2CCCC(C1)N2C(=S)Nc1ccccc1Cl)C1CC1 (stereo not shown) | 13.6
9 | Cc1ccc(-n2c(O)c(C=NCCN3CCOCC3)c(=O)[nH]c2=O)cc1 | 18.2
10 | COc1ccc(C(=O)N/C(=C/c2ccccc2F)C(=O)NCCN2CCOCC2)cc1OC | 14.7
11 | COc1ccc(C(=O)NCC(c2ccccc2)N2CCCC2)cc1S(=O)(=O)N1CCOCC1 (stereo not shown) | 9.56
12 | Cc1ccc(-n2nnnc2-c2cccc(C)c2)cc1 | 10.3
13 | O=C1OCCN1C(=O)[C@H]1[C@H](c2ccc(F)cc2)C(c2ccc(F)cc2)=NN1c1ccccc1 | 5.41
14 | COc1ccc(NC(=S)NN2CCN(C)CC2)cc1 | 14.6
15 | c1ccc(C2CC(c3ccccc3)n3ncnc3N2)cc1 (stereo not shown) | 8.32
16 | Cc1cc(NC(=O)CSc2nc(=O)n(CCCN(C)C)c3c2CCCC3)no1 | 10.8
17 | CN(/C(=N/S(=O)(=O)c1ccccc1)c1ccccc1)S(=O)(=O)c1ccccc1 | 9.03
18 | C=CCn1c(SCC(=O)N2CCCC2)nc2cc(C(=O)NCC3CCCO3)ccc2c1=O (stereo not shown) | 4.24
19 | CSc1ccc(/C=C/C(=O)NC(=O)c2ccccc2O)cc1 | 13.1
20 | C=C(C)CSc1nnc(CCCCCNC(=O)OC(C)(C)C)o1 | 2.66
21 | Cc1ccccc1NC(=O)CCC(=O)OCC(=O)c1cccc([N+](=O)[O-])c1 | 5.3
22 | O=C(Cn1c(=O)[nH]c2ccsc2c1=O)N1CCN(c2ccc(F)cc2)CC1 | -7.95

Row | SMILES | hERG current change (%, negative = inhibition) at 1uM [%]
23 | CCOc1ccc(N(CC(=O)Nc2c(C)n(C)n(-c3ccccc3)c2=O)S(=O)(=O)c2ccccc2)cc1 | -14.9
24 | COc1ccc([N+](=O)[O-])cc1NC(=O)COC(=O)C=C(C)C | 6.89
25 | CCCCn1c(NS(=O)(=O)c2ccc(C)cc2)c(S(=O)(=O)c2ccccc2)c2nc3ccccc3nc21 | 9.76
26 | COc1ccc(CCNc2ccc([N+](=O)[O-])cn2)cc1 | 8.53
27 | COC(=O)c1c(C(C)=O)c(C)n(C)c1C | 12.4
28 | COc1ccc(-c2cc(C(=O)N3CCCC(C(F)(F)F)C3)c3ccccc3n2)cc1OC (stereo not shown) | 6.8
29 | COc1ccc(NS(=O)(=O)c2cc(Br)cc3c2N(C(C)=O)CC3)cc1 | 27.7
30 | Cl.c1ccc2c(CN3CCOCC3)csc2c1 | 5.46
31 | Cc1ccnc(NS(=O)(=O)c2ccc(NS(=O)(=O)c3cc(Cl)ccc3Cl)cc2)n1 | 6.64
32 | CC(C)(C)c1ccc(C(=O)Nc2ccc(Cl)cc2)cc1 | 2.26
33 | CCOc1ccc(OCC(=O)Nc2c3c(nn2C(C)(C)C)CS(=O)(=O)C3)cc1 | 10.2
34 | CC(C)(C)C(=O)Nc1ccc(C(=O)CN2C(=O)NC3(CCOc4ccccc43)C2=O)cc1 (stereo not shown) | 6.51
35 | Cc1cccc(CCNCc2c(C(=O)O)c(C)n(-c3ccccc3)c2C)c1 | 14.2
36 | COc1ccc(C(O)P(=O)(O)CCc2ccccc2)cc1 (stereo not shown) | -6.19
37 | CC(C#N)Sc1ccc(S(=O)(=O)N2CCCC2)cn1 (stereo not shown) | 5.38
38 | CCN1C(=O)/C(=C/c2ccc(N3CCCC3)cc2)NC1=S | 2.55
39 | COC(=O)Oc1ccc(/C=N/NC(=O)CN(c2ccccc2Br)S(C)(=O)=O)cc1OC | -1.33
40 | COc1cccc(C2=NOC(C(=O)NCCCn3ccnc3)C2)c1 (stereo not shown) | 12.9
41 | CC(=O)Nc1cccc(NS(=O)(=O)c2ccccc2[N+](=O)[O-])c1 | 7.03
42 | CC1=C(C(N)=O)C(c2ccc(Br)cc2)n2ncnc2N1 (stereo not shown) | 15.2
43 | N#Cc1ccc2nc3c(nc2c1)CCCC3 | -5.07
44 | COC(=O)C1=C(c2cccc(OCc3ccccc3)c2)C[C@@H]2CC[C@H]1N2C(=O)NCCOc1ccc(OC)cc1 | 4.97

Row | SMILES | hERG current change (%, negative = inhibition) at 1uM [%]
45 | COC(=O)c1ccc(CSc2nc3ccccc3c(=O)n2-c2ccc(OC)c(OC)c2)o1 | 15.1
46 | Cc1csc(NC(=O)CSC2=NS(=O)(=O)c3ccccc3N2)n1 | 12.4
47 | Cc1cc(C)c(C(=O)NC2CCCc3c2cnn3-c2ccc(C)c(C)c2)c(=O)[nH]1 (stereo not shown) | 11
48 | Nc1nc(CN2CCN(c3ccccc3F)CC2)nc(N2CCCc3ccccc32)n1 | 6.63
49 | CCCC(=O)Nc1ccccc1-c1nnc(SC)[nH]c1=O | 2.86
50 | CCOC(=O)NC(=O)C(=CNc1ccc(C)cc1)C(=O)NC(=O)OCC | 9.57
51 | CCOC(=O)c1c(C)nc(C)c2c(=O)oc3ccccc3c12 | 4.64
52 | CCOC(=O)c1oc2ccccc2c1NC(=O)C(C)(C)C | -0.56
53 | C=CCN(C(=O)c1csnn1)C(C(=O)NCc1ccc(F)cc1)c1ccccc1F (stereo not shown) | 1.01
54 | Cc1ccc(C)c(NC(=O)C2CCCN2C(=O)NC2CCCCC2)c1 (stereo not shown) | 32.6
55 | Cl.O=C(C1CCC1)N1CCN(Cc2ccccc2)CC1 | 11.3
56 | COc1ccc(NC(=O)CN(C)C(=O)c2cn(-c3ccccc3)nc2-c2cccnc2)cc1 | 9.52
57 | Cc1ccc(NC(=O)CN2C(=O)S/C(=C\c3ccccn3)C2=O)cc1C | 14.2
58 | COc1ccc(-n2cc(C#N)c(=O)[nH]c2=O)cc1 | 24.9
59 | C=CCNC(=O)/C(=C/c1cccc([N+](=O)[O-])c1)NC(=O)c1ccccc1 | -16.1
60 | COc1cc(OC)cc(-c2c(C#Cc3ccsc3)c3cc(-c4ccc(OC)nc4)ccc3n2C)c1 | 14.9
61 | COc1ccc(C2/C(=C(\O)c3ccc4c(c3)OCCO4)C(=O)C(=O)N2CCCN(C)C)c(OC)c1 (stereo not shown) | -3.84
62 | Cc1c(C)c2ccc(OCC(=O)Nc3nccs3)cc2oc1=O | 6.88
63 | NC(=O)c1ncn([C@@H]2O[C@H](CO)[C@@H](O)[C@H]2O)c1O | 8.69
64 | Cc1cc(C)c(NC(=O)CS(=O)CC(=O)NC2CCCc3ccccc32)c(C)c1 (stereo not shown) | 16.2
65 | COc1cc(/C=C2\C(=N)N3N=C(S(C)(=O)=O)SC3=NC2=O)ccc1OS(=O)(=O)c1ccc(C)cc1 | 16
66 | O=C(Nc1ccc2c(c1)ncn2C1CCCCC1)c1ccco1 | 0.217

Row | SMILES | hERG current change (%, negative = inhibition) at 1uM [%]
67 | Cc1cc(NC(=O)c2ccc3c(c2)OCO3)ccc1NC(=O)c1ccccc1 | 14.6
68 | Cc1c(C(c2cc(O)ccc2Cl)c2c(C)n(C)n(-c3ccccc3)c2=O)c(=O)n(-c2ccccc2)n1C | 11
69 | COc1ccc2nc(N(CCN(C)C)C(=O)c3ccc4ccccc4c3)sc2c1.Cl | 7.63
70 | CCN1CCN(C(c2cccnc2)c2cc(Cl)c3cccnc3c2O)CC1 (stereo not shown) | -24.8
71 | CCOC(=O)N=Nc1c(O)n(CC(=O)OC)c2ccccc12 | 10.4
72 | CC(=O)c1cccc(NC(=O)c2ccc(NC(=O)CC3SC(N4CCCCC4)=NC3=O)cc2)c1 (stereo not shown) | 5.59
73 | CCCOc1ccc(C(=O)N2CCN(c3ccc(N)cc3Cl)CC2)cc1 | -6.51
74 | Cc1cc(OCCCCCn2ccnc2)cc(C)c1Cl.Cl | 10.2
75 | O=C(CN1C(=O)c2ccccc2S1(=O)=O)NCc1c(F)cccc1F | 6.3
76 | CCc1ccc(NC(=O)CN(c2ccc(OC)cc2)S(=O)(=O)c2c(C)[nH]c(=O)[nH]c2=O)cc1 | 14.7
77 | CN(C)CCNC(=O)/C(=C/c1ccc(-c2ccc(Cl)cc2Cl)o1)NC(=O)c1ccccc1 | -7.71
78 | CCN1CCCC1CNc1ncnc2c1[nH]c1ccc(F)cc12 (stereo not shown) | -81.4
79 | COc1ccc(C2SCC(=O)Nc3c2c(C)nn3-c2ccccc2)cc1 (stereo not shown) | 17.2
80 | O=C(NC1CCN(S(=O)(=O)c2ccc(F)cc2)CC1)C1CCCCC1 | 10.9
81 | COC(=O)c1ccc(CN(c2ccccn2)S(=O)(=O)c2ccccc2)cc1 | 20.5
82 | CN1CCN(c2ccccc2NC(=O)c2ccccc2F)CC1 | -46.4
83 | CN(C)C(=O)/C(=C\c1ccncc1)NC(=O)c1ccccc1 | 3.87
84 | O=C(Nc1nccs1)OCc1ccccc1 | 11.3
85 | Cc1ccc2nc(NC(=O)CN3CCN(c4ccccn4)CC3)sc2c1 | 7.71
